# Measurements: PubChem BioAssay AID720542 (National Center for Advancing Translational Sciences (NCATS), 2013)
# The whole screen tested about 360,000 compounds, of which about 740 (0.21%) were called active. The shares of active, inactive and inconclusive entries below differ from those in the screen. Calls come from the whole dose curve; as a rule, active = well fitted inhibition curve with a large enough effect; inconclusive = small, poorly fitted or top-dose-only effect; inactive = no such curve, though single readings can be large or run the other way. Potencies of inconclusive entries are left out as doubtful fits.
# Tested on: Plasmodium falciparum AMA1 (3D7) - RON2 peptide interaction
# Test: qHTS for Inhibitors of AMA1-RON; Towards Development of Antimalarial Drug Lead: Primary Screen; note: nearly all actives have a fitted effect of over 45% in size;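 for activity change, negative = inhibition: 0% = vehicle wells and -100% = peptide control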
# Details: AlphaScreen AMA1-biotinylated RON2 peptide binding; activity change, negative = inhibition: at 58.2 µM (top of the series) unless noted
# Procedure, shortened: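 AMA1 (3D7) with his tag at 25 nM final met compounds first, then biotinylated RON2 peptide at 25 nM; detection used donor plus acceptor beads, 10 µg/mL apiece, read by AlphaScreen after 30 min at room temperature.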
# Potency is the fitted concentration of half-maximal effect; tags give direction and shape of the fitted curve.
SMILES,Potency,"activity change, negative = inhibition"
Cc1ccc(C(=O)NC2CC3CCC(C2)N3)cc1 (stereo not given),"inconclusive [inhibitor, partial curve]",
CSc1ccc(C2C(C#N)=C(N)Oc3c2ccc(=O)c2c(C)oc(C)c32)cc1 (stereo not given),"inconclusive [inhibitor, single point]",
CCOC(=O)N1CCN(Cc2nc(N)nc(Nc3ccc(Oc4ccccc4)cc3)n2)CC1,"inconclusive [inhibitor, single point]",
NS(=O)(=O)c1cccc(NC(=O)c2ccc3nc[nH]c3c2)c1,,inconclusive: -10.7% [inhibitor]
CC(=O)NC1=NN(C(C)=O)C(C)(c2cccnc2)S1 (stereo not given),inactive,
Nc1nc(CN2CCN(c3ccccc3F)CC2)nc(Nc2ccc3c(c2)OCCO3)n1,"inconclusive [inhibitor, single point]",
CN1CCN(c2ccc(Cl)cc2NC(=O)c2nn(-c3ccccc3)c(=O)c3ccccc23)CC1,"inconclusive [inhibitor, full curve, poor fit]",
Cc1cc(C(=O)CCl)c(C)n1CCc1ccccc1,"inconclusive [inhibitor, partial curve]",
N[C@@H](Cc1ccc(O)c(O)c1)C(=O)O,"inconclusive [inhibitor, partial curve]",
CSCc1c(C(=O)N2CCCc3ccccc32)oc2ccccc12,"inconclusive [inhibitor, single point]",
CCCCCCC(=O)N(O)C1CC(=O)N(c2ccc(C)cc2)C1=O (stereo not given),inactive,
Clc1ccc(CN2CCCCCC2)cc1Cl,"inconclusive [inhibitor, partial curve]",
COc1cccc(C(=O)C2CCCN(Cc3ccc4nonc4c3)C2)c1 (stereo not given),"inconclusive [inhibitor, single point]",
CC1=C(C(=O)OC(C)C)C(c2cccnc2)C2=C(CC(C)(C)CC2=O)N1 (stereo not given),,inconclusive: 9.28% [inhibitor]
CC(C)CN1C(=O)c2ccc(C(=O)Nc3ccccc3C(=O)O)cc2C1=O,inactive,
Oc1ccccc1/C=N/N1CCN(c2ccccn2)CC1,"inconclusive [inhibitor, single point]",
CC(C)N1CCN(S(=O)(=O)c2ccc3ccccc3c2)CC1,"inconclusive [inhibitor, partial curve]",
Cc1ccccc1NC(=O)Cc1ccccc1,inactive,
COC(=O)[C@@H]1[C@@H](C#N)C2(c3ccccc3-c3ccccc32)N(c2ccc(Cl)cc2)N1C#N,"inconclusive [inhibitor, single point]",
COc1ccc(C2CC(=O)N3CN(Cc4ccco4)CSC3=C2C#N)cc1 (stereo not given),"inconclusive [inhibitor, full curve, poor fit]",
O=C(/C=C/c1ccc(Cl)cc1)N1CCN(c2ccccc2[N+](=O)[O-])CC1,"inconclusive [inhibitor, single point]",
O=C(NCC1CCCO1)c1cn(Cc2ccccc2Cl)nc1-c1ccccc1 (stereo not given),inactive,
Cc1cc(OCCN2CCOCC2)ccc1[N+](=O)[O-],"inconclusive [inhibitor, partial curve]",
COc1ccccc1OCC#CCn1ccnc1,"inconclusive [inhibitor, single point]",

SMILES,Potency,"activity change, negative = inhibition"
Cc1ccccc1C(=O)N1CCN=C1SCc1ccc([N+](=O)[O-])cc1,"inconclusive [inhibitor, partial curve]",
COc1ccc(C(O)c2nc(-c3cnn(C)c3)cs2)cc1 (stereo not given),inactive,
COc1ccc(-c2ccc(N(C)C)cc2)cc1[C@H]1[C@@H]2C=CCC[C@@]2(C)C(=O)N1Cc1ccccc1,"inconclusive [inhibitor, partial curve]",
COc1cc(/C=C2/SC(=S)N(CC3CCCO3)C2=O)ccc1O (stereo not given),"inconclusive [inhibitor, partial curve, poor fit]",
Cc1cc(OCC(=O)O)c2ccccc2n1,"inconclusive [inhibitor, single point]",
Cc1ccc2nc(-c3ccncc3)cc(C(=O)NCCc3ccc(F)cc3)c2c1,inactive,
COc1ccc(Cc2nnc(NC(=O)c3ccccc3[N+](=O)[O-])s2)cc1,inactive,
COc1cc(NC(=O)C2CC3CCC2C3)c(OC)cc1Cl (stereo not given),"inconclusive [inhibitor, partial curve]",
CCN(CC)c1cc(Cl)c2nonc2c1N,"inconclusive [inhibitor, partial curve]",
COc1cccc(/C=C2\SC(=S)N(CC3CCCO3)C2=O)c1 (stereo not given),"inconclusive [inhibitor, partial curve]",
Cc1ccccc1Cn1c(C)c(C(=O)NCc2ccc(Cl)c(Cl)c2)sc1=O,inactive,
Nc1cc(N)cc(Cc2ccccc2)c1,"inconclusive [inhibitor, single point]",
CCNc1cc2c(cc1O)CCC1C2CCC2(C)C(O)CCC12 (stereo not given),"inconclusive [inhibitor, single point]",
O=C(NNC(=O)c1cccs1)c1ccncc1,"inconclusive [inhibitor, full curve]",
O=C(CSc1nnc(CNC(=O)c2ccccc2F)o1)Nc1ccc2c(c1)OCCO2,"inconclusive [inhibitor, full curve]",
COc1cc(NC(=O)c2noc3c2CCC3)c(OC)cc1Cl,"inconclusive [inhibitor, partial curve]",
COc1ccc(Cl)cc1-n1c(=S)sc2c(=O)[nH]c(SCC(=O)NCC3CCCO3)nc21 (stereo not given),"inconclusive [inhibitor, full curve, poor fit]",
Cc1cc(C)c2c(n1)SCC(=O)N2CC(=O)Nc1ccc(C)c(C)c1,inactive,
C=CCOc1c(Br)cc(CNn2nnnc2N)cc1OCC,inactive,
Cc1ccc2[nH]c(CN3CCC(CO)(CC4CCCCO4)CC3)c(C)c2c1 (stereo not given),"inconclusive [inhibitor, single point]",
COc1ccc(Br)cc1CN1CCCC(C(=O)N2CCCCC2)C1 (stereo not given),"inconclusive [inhibitor, partial curve]",
COc1ccc(N2CCN(CC(O)COc3ccc(C)cc3C)CC2)cc1 (stereo not given),active: 25.1 µM,
COC(=O)C1=C(N)OC2=C(C(=O)CCC2)C1c1cccs1 (stereo not given),"inconclusive [inhibitor, partial curve]",
CCN1CCN(CCOc2ccccc2OCc2ccccc2)CC1,"inconclusive [inhibitor, partial curve]",

SMILES,Potency,"activity change, negative = inhibition"
COc1ccccc1CNc1nc(NCCOc2ccccc2)c2sccc2n1,"inconclusive [inhibitor, partial curve]",
CC(C(=O)N1CCCCC1)N1CCN(S(=O)(=O)c2ccc(Cl)cc2)CC1 (stereo not given),"inconclusive [inhibitor, single point]",
COc1ccc(C2C(C#N)=C(N)Oc3n[nH]c(-c4ccccn4)c32)c(OC)c1OC (stereo not given),"inconclusive [inhibitor, single point]",
O=C(O)c1ccc(N/N=C/C=C/c2ccccc2[N+](=O)[O-])cc1,"inconclusive [inhibitor, full curve]",
CCNc1nc(SCC(=O)OC)nc(N(C)C)n1,"inconclusive [inhibitor, partial curve]",
COc1ccc(NC(=O)CCCn2nc(C)c3c(C)n(-c4ccccc4)nc3c2=O)cc1,inactive,
CCOC(=O)c1c(C)c(C(=O)Nc2cc(OC)ccc2OC)c(C)n1CC,"inconclusive [inhibitor, single point]",
O=[N+]([O-])c1ccc(/C=N/Nc2ccc3ccccc3c2)o1,"inconclusive [inhibitor, partial curve]",
O=C(COC(=O)c1ccc2c(c1)OCO2)Nc1ccccc1Cl,inactive,
C=CCN(c1ccc(Cl)cc1)S(=O)(=O)c1cccc(C(=O)O)c1,"inconclusive [inhibitor, single point]",
Cc1cc(NC(=O)Cn2ccsc2=N)c([N+](=O)[O-])cc1C,"inconclusive [inhibitor, single point]",
NC(=O)c1nsc(C(=O)N(c2ccccc2)C(C(=O)NC2CCCC2)c2ccncc2)c1N (stereo not given),inactive,
O=S(=O)(c1ccc2c(c1)OCCO2)N1CCC(n2nnc3cc(C(F)(F)F)ccc32)CC1,inactive,
C=CC[n+]1c(/C=C2\C=Cc3cc(C)ccc3N2CC)ccc2ccccc21,"inconclusive [inhibitor, single point]",
Cc1ccc2[nH]c(=O)c(CN(Cc3nnnn3Cc3ccccc3)C3CCCC3)cc2c1,inactive,
COc1ccccc1N1CCN(/N=C/C=C/c2ccccc2[N+](=O)[O-])CC1,active: 5.62 µM,
Cn1c(=O)c([N+](=O)[O-])c(N2CCN(Cc3ccc4c(c3)OCO4)CC2)c2ccccc21,"inconclusive [inhibitor, partial curve]",
CC(NC(=O)c1cc2sccc2n1C)c1ccc2c(c1)OCCO2 (stereo not given),"inconclusive [inhibitor, single point]",
CN(C)c1ccc(-c2ccnc3c2CC(C)(C(=O)NCC2CC2)O3)cc1 (stereo not given),"inconclusive [inhibitor, partial curve]",
Cn1c(O)c(C=NCCN2CCOCC2)c(=O)n(C)c1=S,inactive,
COc1ccc(CNC(=O)c2ccc(-n3ccnc3)c3ccoc23)cc1OC,"inconclusive [inhibitor, single point]",
OC(CN(c1ccccc1)c1ccccc1)Cn1cnc2ccccc21 (stereo not given),inactive,
